# From PubChem BioAssay (NCATS)
# Inconclusive means that the source gave no clear call. Such entries were picked first, then a sample of the others. For some assays here: Potencies of inconclusive entries are left out as doubtful fits. Calls of active or inactive are those of the source. Unless noted, the call rests on the fitted dose curve; in most records, active means well fitted curve in the direction sought with a large enough effect; inconclusive means small, poorly fitted or top-dose-only effect, or another doubt; inactive means no such curve, though single readings can be large; an effect the other way counts as inactive or inconclusive.
# Key:
# [1] = NFAT Signaling Pathway (AID 444; active means well fitted curve in either direction with a large enough effect, not every such curve was filed as active; inconclusive means small, poorly fitted or top-dose-only effect, or another doubt;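 further: carbachol stimulus at about its EC50 of 1 µM final; on the % scale 0 is the no-effect control and ±100 the full control effect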); conditions: Jurkat NFAT-bla M1, carbachol, beta-lactamase ratio, 5 h; at 7.69 µM (top of the series) unless noted
# Procedure, shortened: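 Jurkat cells with NFAT-driven β-lactamase reporter and co-expressed M1 receptor, stimulated with carbachol (final 1 uM, ~EC50), compound titration, 5 h at 37 °C. CCF4 loaded 1 h at RT; 460/530 nm ratio gave %activity and AC50.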
# [2] = molecular target: 3',5'-cyclic-AMP phosphodiesterase 4B (Homo sapiens) (UniProt Q07343); experiment: qHTS Assay for Inhibitors of PDE-IV (AID 607; active means well fitted activation curve with a large enough effect in the main read-out, with a control signal flat, not every such curve was filed as active; inconclusive means small, poorly fitted or top-dose-only effect, or effect the other way, or a change in a side signal; further: potency means the concentration at half of the fitted maximal effect; on activation (PDE inhibition): % of control where 0% means no effect); conditions: HEK293 ACTOne CNG channel cells, membrane potential fluorescence; activation (PDE inhibition): at 22.9 µM (top of the series)
# UniProt Q07343, sequence (Q07343 whole entry, looked up): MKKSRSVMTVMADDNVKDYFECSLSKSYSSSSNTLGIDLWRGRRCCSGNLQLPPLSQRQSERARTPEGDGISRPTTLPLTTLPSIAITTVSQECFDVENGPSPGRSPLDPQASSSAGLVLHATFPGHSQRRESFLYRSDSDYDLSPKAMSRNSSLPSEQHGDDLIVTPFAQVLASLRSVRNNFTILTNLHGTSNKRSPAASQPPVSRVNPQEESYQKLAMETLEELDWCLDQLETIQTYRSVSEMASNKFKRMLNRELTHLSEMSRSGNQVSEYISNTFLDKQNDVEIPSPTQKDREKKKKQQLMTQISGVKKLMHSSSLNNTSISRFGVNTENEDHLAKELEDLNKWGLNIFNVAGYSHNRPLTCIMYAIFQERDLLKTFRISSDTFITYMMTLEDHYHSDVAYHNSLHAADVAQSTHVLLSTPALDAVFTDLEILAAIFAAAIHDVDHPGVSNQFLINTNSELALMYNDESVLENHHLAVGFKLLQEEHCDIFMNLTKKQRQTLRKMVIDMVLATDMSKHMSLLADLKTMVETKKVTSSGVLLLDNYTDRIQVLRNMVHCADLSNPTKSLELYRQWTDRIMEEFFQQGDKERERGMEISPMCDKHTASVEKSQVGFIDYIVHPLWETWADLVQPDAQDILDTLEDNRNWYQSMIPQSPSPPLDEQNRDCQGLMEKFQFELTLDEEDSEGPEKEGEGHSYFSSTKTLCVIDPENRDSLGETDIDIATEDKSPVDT
# Procedure, shortened: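 HEK293 ACTOne cells with CNG channel (1000/well), endogenous PDE4; membrane potential dye, compounds up to 22.9 uM final. Fluorescence Ex 535/Em 590; RO 20-1724 (100 uM final) as reference.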
# [3] = qHTS Assay for Identification of Small Molecule Agonists for Hypoxia Response Element Signaling Pathway (AID 914; active means well fitted activation curve with a large enough effect in the signal ratio, with a control signal flat, not every such curve was filed as active; inconclusive means small, poorly fitted or top-dose-only effect, or effect the other way, or a change in a side signal; the % refers to the signal ratio; further: potency means the concentration at half of the fitted maximal effect; on activation: top concentration of the series differs between compounds; % of control where 0% means no effect); conditions: ME-180 HRE-bla reporter, beta-lactamase ratio, CoCl2, 17 h; activation: hits give high values
# Procedure, shortened: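 ME-180 cells carrying an HRE-driven beta-lactamase reporter were treated with compounds in a titration series plus an EC50 level of CoCl2 for 17 h at 37 degrees Celsius; CCF4 readout as the 460nm/530nm ratio gave AC50 values.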
# [4] = Primary qHTS for small molecule stabilizers of the endoplasmic reticulum resident proteome: Secreted ER Calcium Modulated Protein (SERCaMP) assay (AID 1508630); conditions: SH-SY5Y GLuc-SERCaMP (Gaussia luciferase released on ER calcium loss) secretion, thapsigargin, luminescence; activity change, negative = inhibition: at 38.4 µM (top of the series) unless noted; further: potency means the concentration at half of the fitted maximal effect; on activity change, negative = inhibition: on the % scale 0 is the no-effect control and ±100 the full control effect
# Procedure, shortened: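 The SH-SY5Y reporter protocol was run at 3 concentrations up to 38.3 uM (primary) or 11 concentrations (follow-up): 16 h compound, 100 nM thapsigargin for 4 h, then extracellular luciferase luminescence.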
# [5] = molecular target: Ubiquitin carboxyl-terminal hydrolase 1 (Homo sapiens) (UniProt O94782); experiment: Inhibitors of USP1/UAF1: Pilot qHTS (AID 504865); further: potency means the concentration at half of the fitted maximal effect;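 further: rhodamine fluorescence freed from ubiquitin-rhodamine substrate followed over time; nearly all actives have a fitted effect of over 35% in size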; on activity change, negative = inhibition: top concentration of the series differs between compounds; on the % scale 0 is the no-effect control and ±100 the full control effect
# UniProt O94782, sequence (O94782 whole entry, looked up): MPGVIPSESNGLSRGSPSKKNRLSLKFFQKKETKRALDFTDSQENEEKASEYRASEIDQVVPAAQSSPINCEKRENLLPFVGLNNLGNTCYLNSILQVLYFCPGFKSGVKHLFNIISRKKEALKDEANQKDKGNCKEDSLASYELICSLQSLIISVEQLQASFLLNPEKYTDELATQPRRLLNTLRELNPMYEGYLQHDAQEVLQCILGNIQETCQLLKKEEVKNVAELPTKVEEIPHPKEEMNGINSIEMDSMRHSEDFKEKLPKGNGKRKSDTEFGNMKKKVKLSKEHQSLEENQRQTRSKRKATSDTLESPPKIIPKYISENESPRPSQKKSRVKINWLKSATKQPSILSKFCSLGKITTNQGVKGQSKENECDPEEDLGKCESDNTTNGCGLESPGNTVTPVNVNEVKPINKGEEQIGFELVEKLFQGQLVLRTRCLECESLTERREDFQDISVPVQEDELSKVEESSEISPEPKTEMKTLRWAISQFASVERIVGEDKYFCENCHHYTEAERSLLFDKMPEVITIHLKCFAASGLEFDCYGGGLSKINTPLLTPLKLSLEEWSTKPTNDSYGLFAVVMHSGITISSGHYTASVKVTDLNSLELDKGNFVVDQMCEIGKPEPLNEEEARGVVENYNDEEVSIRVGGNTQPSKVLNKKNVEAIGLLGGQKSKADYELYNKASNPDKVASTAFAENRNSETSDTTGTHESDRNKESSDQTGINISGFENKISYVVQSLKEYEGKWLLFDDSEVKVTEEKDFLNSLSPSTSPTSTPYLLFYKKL
# Procedure, shortened: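 Deubiquitinase activity followed as kinetic rhodamine fluorescence release from 150 nM Ub-Rho. 1 nM USP1/UAF1 with compound, after 15 min room-temperature preincubation, in HEPES pH 7.8 buffer containing TCEP, EDTA, BSA and Tween-20.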
# [6] = Stat Signaling Pathway (AID 446; active means well fitted curve in either direction with a large enough effect, not every such curve was filed as active; inconclusive means small, poorly fitted or top-dose-only effect, or another doubt;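 further: ME-180 cervical cancer cells given 40 pM IL-6 alongside compound; SIE-controlled beta-lactamase reporter measured as 460/530 nm FRET emission ratio; top concentration of the series differs between compounds; on the % scale 0 is the no-effect control and ±100 the full control effect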); conditions: ME-180 (cervical carcinoma) SIE beta-lactamase reporter, IL-6 stimulated, 5 h; at 7.69 µM (top of the series) unless noted
# Procedure, shortened: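 Normalization used AC90 stimulation (300 pM IL-6) and AC90 inhibition (125 nM pan-JAK inhibitor at 40 pM IL-6). The underlying signal is SIE-driven beta-lactamase in ME-180 cells after 5 h IL-6 exposure with compound.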
# [7] = molecular target: Cytochrome P450 2C9 (Homo sapiens) (UniProt P11712); experiment: qHTS Assay for Inhibitors and Substrates of Cytochrome P450 2C9 (AID 883); further: nearly all actives have a fitted effect of over 60% in size; further: potency means the concentration at half of the fitted maximal effect
# UniProt P11712, sequence (P11712 whole entry, looked up): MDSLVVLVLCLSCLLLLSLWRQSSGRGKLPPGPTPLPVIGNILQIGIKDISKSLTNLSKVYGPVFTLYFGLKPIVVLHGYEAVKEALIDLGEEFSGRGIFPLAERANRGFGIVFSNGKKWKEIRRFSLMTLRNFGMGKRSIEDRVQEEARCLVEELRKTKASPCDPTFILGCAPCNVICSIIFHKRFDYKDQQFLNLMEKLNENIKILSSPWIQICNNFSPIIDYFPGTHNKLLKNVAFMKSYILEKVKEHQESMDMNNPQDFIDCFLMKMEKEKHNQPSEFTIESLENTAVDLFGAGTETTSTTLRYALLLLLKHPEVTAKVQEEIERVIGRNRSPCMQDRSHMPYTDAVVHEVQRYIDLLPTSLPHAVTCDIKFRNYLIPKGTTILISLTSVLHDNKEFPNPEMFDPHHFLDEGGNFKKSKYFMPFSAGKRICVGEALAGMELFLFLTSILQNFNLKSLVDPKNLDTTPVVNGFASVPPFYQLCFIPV
# Procedure, shortened: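 Human CYP2C9 (10nM) with Luciferin-H at 100uM (its KM) in 25mM KPO4; compound preincubated 10 min at 37C, then NADPH regeneration for 60 min at 37C. Luciferin read by luminescence after detection reagent; normalized to 57uM sulphaphenazole as full inhibition.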
# [8] = molecular target: Cytochrome P450 2C19 (Homo sapiens) (UniProt P33261); experiment: qHTS Assay for Inhibitors and Substrates of Cytochrome P450 2C19 (AID 899); further: top concentration of the series differs between compounds; on the % scale 0 is the no-effect control and ±100 the full control effect; nearly all actives have a fitted effect of over 60% in size
# UniProt P33261, sequence (P33261 whole entry, looked up): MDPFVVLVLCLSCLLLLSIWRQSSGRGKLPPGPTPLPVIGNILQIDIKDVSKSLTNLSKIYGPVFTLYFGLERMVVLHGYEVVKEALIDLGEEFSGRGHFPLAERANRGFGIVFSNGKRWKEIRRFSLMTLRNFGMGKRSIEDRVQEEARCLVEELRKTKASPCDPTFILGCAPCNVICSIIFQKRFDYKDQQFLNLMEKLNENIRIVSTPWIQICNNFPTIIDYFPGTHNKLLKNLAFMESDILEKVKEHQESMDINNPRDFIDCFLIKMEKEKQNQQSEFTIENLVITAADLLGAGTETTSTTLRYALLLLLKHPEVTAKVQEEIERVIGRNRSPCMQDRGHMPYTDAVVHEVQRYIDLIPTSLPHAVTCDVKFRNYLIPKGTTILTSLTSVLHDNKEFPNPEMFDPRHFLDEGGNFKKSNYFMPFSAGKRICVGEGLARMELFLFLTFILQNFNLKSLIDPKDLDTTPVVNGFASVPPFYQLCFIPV
# Procedure, shortened: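 5 nM human CYP2C19 with 10uM Luciferin-H EGE (at KM) in 50mM KPO4, compound preincubated 10 min at 37C, then NADPH regeneration for 60 min at 37C. Luciferin read by luminescence after detection reagent; normalized to 57uM ketoconazole as full inhibition.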
# [9] = molecular target: Cytochrome P450 3A4 (Homo sapiens) (UniProt P08684); experiment: qHTS Assay for Inhibitors and Substrates of Cytochrome P450 3A4 (AID 884); conditions: recombinant CYP3A4, Luciferin-PPXE luminescence; activity change, negative = inhibition: at 57.1 µM (top of the series); further: potency means the concentration at half of the fitted maximal effect; nearly all actives have a fitted effect of over 50% in size
# UniProt P08684, sequence (P08684 whole entry, looked up): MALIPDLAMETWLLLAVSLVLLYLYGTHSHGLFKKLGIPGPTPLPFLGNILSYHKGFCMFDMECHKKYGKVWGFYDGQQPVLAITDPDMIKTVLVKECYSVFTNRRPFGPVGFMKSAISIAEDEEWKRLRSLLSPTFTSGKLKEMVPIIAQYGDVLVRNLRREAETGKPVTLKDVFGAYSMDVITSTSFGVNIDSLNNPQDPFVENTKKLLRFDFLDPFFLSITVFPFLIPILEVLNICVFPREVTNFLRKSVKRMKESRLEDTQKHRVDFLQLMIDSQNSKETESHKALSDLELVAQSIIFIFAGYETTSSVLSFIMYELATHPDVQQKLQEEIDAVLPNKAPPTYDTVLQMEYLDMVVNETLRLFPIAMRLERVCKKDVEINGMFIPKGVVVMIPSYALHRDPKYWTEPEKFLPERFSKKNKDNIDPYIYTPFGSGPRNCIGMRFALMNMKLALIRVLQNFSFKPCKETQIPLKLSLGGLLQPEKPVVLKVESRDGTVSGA
# Procedure, shortened: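 Luminescent readout of luciferin produced by CYP3A4 (20 nM) dealkylation of Luciferin-PPXE, 25 uM (its KM). NADPH-driven reaction ran 60 min at RT after 10 min compound preincubation; data scaled to 57 uM ketoconazole as 100% inhibition.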
# [10] = molecular target: Cytochrome P450 3A4 (Homo sapiens) (UniProt P08684); experiment: qHTS Assay for Activators of Cytochrome P450 3A4 (AID 885); further: nearly all actives have a fitted effect of over 65% in size
# Procedure, shortened: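 Human CYP3A4 dealkylates Luciferin-PPXE to luciferin, which luciferase detection converts to light. Substrate was at its KM (25uM), buffer 200mM KPO4, reaction 60 min at RT.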
# Tags describe the fitted curve by direction and shape or compound fluorescence and quenching.
smiles,measurement,setting,value
N#Cc1ccc(CN2CCC3(CC2)CCN(S(=O)(=O)c2ccccc2)CC3)cc1,"activity change, negative = inhibition",[1],inconclusive: -74.6% [inhibitor]
same,Potency,[2],inactive
same,Potency,[3],"inconclusive [inhibitor, single point]"
same,Potency,[4],"inconclusive [inhibitor, single point]"
COc1ccccc1CN1CC[C@@]2(CCCN(C(=O)c3cc(C(F)(F)F)cc(C(F)(F)F)c3)C2)C1,"activity change, negative = inhibition",[1],inconclusive: -63.9% [inhibitor]
same,Potency,[2],inactive
same,Potency,[4],"inconclusive [inhibitor, single point]"
CN1CCN(c2ccnc(-c3ccccc3C(F)(F)F)n2)CC1,"activity change, negative = inhibition",[1],inconclusive: -44.1% [inhibitor]
same,Potency,[2],"inconclusive [activator, partial curve]"
same,Potency,[4],"inconclusive [inhibitor, partial curve, poor fit]"
Clc1ccccc1-c1ccc2ncnc(NCc3cccnc3)c2c1,"activity change, negative = inhibition",[1],inactive: 13.8%
same,Potency,[2],"inconclusive [activator, single point]"
same,Potency,[3],"inconclusive [activator, single point]"
same,Potency,[4],inactive
Cc1noc(C)c1-c1ccc2ncnc(N(C)C)c2c1,"activity change, negative = inhibition",[1],inconclusive: -36.8% [inhibitor]
same,Potency,[3],"inconclusive [activator, single point]"
same,Potency,[5],inactive
same,Potency,[4],inactive
COCC(=O)N1CCC2(CC1)CN(c1cccc(-c3ccccc3)c1)C2,"activity, negative = inhibition",[6],inconclusive: 19.9% [activator]
same,Potency,[2],inactive
same,activation,[3],inconclusive: -18.8%
same,Potency,[4],inactive
CCNc1ncc2nc(C)c(=O)n(Cc3cccc(OC)c3)c2n1,"activity, negative = inhibition",[6],inconclusive: -46.4% [inhibitor]
same,Potency,[2],inactive
same,Potency,[4],"inconclusive [inhibitor, single point]"
CN(Cc1ccco1)c1ncncc1-c1cccc(NS(C)(=O)=O)c1,"activity, negative = inhibition",[6],inactive: 8.28%
same,Potency,[7],"inconclusive [inhibitor, partial curve]"
same,Potency,[4],inactive
CC(C)CN1CCC2(CC1)CCN(C(=O)c1csnn1)CC2,"activity, negative = inhibition",[6],inactive: -16.4%
same,Potency,[4],inactive
COc1ccccc1-c1nccc(NCc2cccc(C)c2)n1,"activity, negative = inhibition",[6],inconclusive: 4.33% [inhibitor]
same,Potency,[2],"inconclusive [rising, partial curve]"
same,Potency,[5],active: 22.4 µM
same,Potency,[4],"inconclusive [inhibitor, single point]"
CN(C)c1ccc(-c2nc(N(C)C)c3ccccc3n2)cc1,"activity, negative = inhibition",[6],inconclusive: 93.6% [activator]
same,"activity change, negative = inhibition",[7],inactive: 118% [at 2.29 µM]
same,Potency,[3],"inconclusive [inhibitor, full curve, poor fit]"
same,Potency,[4],inactive
COc1ncc2nc(C)c(=O)n(CCC#N)c2n1,"activity change, negative = inhibition",[1],inactive: -6.19%
same,Potency,[8],inactive
same,activation,[3],inactive: 7.94%
same,Potency,[4],inactive
COC(=O)N1CCC2(CCCN(Cc3ccccc3OC)C2)CC1,"activity change, negative = inhibition",[1],active: -73.7%
same,Potency,[9],"inconclusive [inhibitor, partial curve]"
same,Potency,[4],inactive
COc1ccc(-n2c(=O)c(-c3cccs3)nc3cnc(N4CCOCC4)nc32)cc1,"activity, negative = inhibition",[6],inconclusive: 58.4% [activator]
same,Potency,[5],inactive
same,Potency,[4],inactive
O=C(c1cccc(F)c1)N1CCC2(CCCN(Cc3ccncc3)C2)CC1,"activity change, negative = inhibition",[1],inconclusive: -54.6% [inhibitor]
same,Potency,[9],"inconclusive [inhibitor, full curve]"
same,Potency,[10],inactive
same,Potency,[4],inactive
Cc1noc(C)c1C(=O)N1CCC2(CCCN(C(=O)Nc3ccccc3)C2)CC1,"activity, negative = inhibition",[6],inactive: -8.55%
same,Potency,[4],inactive
O=C(Oc1ccccc1)N1CCC2(CCCN(c3ccncc3)C2)CC1,"activity change, negative = inhibition",[1],active: -80.6%
same,Potency,[3],"inconclusive [activator, partial curve]"
same,Potency,[4],"inconclusive [inhibitor, single point]"
COCCn1c(=O)c(-c2cc(F)cc(F)c2)nc2cnc(Oc3ccccc3)nc21,"activity change, negative = inhibition",[1],inactive: -3.81%
same,activation,[3],inactive: 20.9%
same,Potency,[4],"inconclusive [inhibitor, partial curve, poor fit]"
O=S(=O)(c1ccccc1)N1CCC2(CCCN(c3ccccn3)C2)CC1,"activity change, negative = inhibition",[1],inconclusive: -49.6% [inhibitor]
same,activation,[3],inactive: -11.6%
same,Potency,[4],inactive
O=C(Nc1ccccc1)N1CCC2(CC1)CCN(S(=O)(=O)c1ccccc1)CC2,"activity, negative = inhibition",[6],inconclusive: -61.2% [inhibitor]
same,Potency,[4],inactive
CCNc1ncc2nc(-c3cccs3)c(=O)n(Cc3cccc(OC)c3)c2n1,"activity, negative = inhibition",[6],inconclusive: 38.7% [activator]
same,Potency,[3],"inconclusive [activator, full curve]"
same,Potency,[4],inactive
